# According to PMC4336329 (PLoS ONE, 2015):
# Screen size: about 310,000 compounds; about 14,000 (4.5%) showed an effect of 50% or more. Effects have a minus sign here. Some of the results follow.
# Molecular target: human ether-à-go-go-related gene (hERG) potassium channel (human, UniProt Q12809)
# Test: primary screen, population patch clamp on CHO cells stably expressing hERG
# 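Note: peak tail current of the secondary pulse compared with the same well before compound.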
# Sequence of human ether-à-go-go-related gene (hERG) potassium channel (Q12809 whole entry, looked up): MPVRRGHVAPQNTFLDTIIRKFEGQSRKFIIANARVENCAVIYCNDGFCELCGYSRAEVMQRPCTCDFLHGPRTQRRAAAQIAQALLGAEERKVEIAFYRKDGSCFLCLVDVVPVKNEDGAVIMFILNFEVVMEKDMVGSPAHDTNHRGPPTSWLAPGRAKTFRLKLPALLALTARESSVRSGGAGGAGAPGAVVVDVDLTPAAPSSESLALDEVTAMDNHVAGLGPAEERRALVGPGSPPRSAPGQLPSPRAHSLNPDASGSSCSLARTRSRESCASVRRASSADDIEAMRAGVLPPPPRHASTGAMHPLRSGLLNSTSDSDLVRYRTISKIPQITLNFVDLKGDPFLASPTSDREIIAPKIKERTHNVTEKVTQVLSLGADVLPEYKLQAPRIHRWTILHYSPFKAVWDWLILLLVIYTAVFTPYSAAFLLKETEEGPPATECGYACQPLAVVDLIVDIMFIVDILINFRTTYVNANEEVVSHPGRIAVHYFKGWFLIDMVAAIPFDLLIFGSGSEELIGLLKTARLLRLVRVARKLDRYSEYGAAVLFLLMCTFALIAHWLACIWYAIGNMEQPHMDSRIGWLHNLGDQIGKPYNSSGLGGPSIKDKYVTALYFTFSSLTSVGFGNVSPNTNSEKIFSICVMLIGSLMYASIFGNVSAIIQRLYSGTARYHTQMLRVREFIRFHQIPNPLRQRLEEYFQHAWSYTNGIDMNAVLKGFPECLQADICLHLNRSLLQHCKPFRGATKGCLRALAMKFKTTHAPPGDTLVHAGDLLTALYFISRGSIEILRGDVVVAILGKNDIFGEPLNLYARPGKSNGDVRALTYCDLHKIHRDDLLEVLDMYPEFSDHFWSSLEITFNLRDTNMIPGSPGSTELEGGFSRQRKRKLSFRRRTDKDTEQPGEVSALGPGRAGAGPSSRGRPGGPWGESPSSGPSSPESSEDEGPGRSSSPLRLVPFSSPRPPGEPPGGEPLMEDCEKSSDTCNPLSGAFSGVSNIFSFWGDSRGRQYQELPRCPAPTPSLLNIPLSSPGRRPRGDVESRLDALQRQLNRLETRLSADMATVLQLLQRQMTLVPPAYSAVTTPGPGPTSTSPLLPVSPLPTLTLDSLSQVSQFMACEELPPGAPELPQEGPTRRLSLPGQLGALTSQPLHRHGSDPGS
row,Compound,"hERG current change (%, negative = inhibition) at 10uM"
1,O=C(Nc1ccc(F)cc1F)C1CCN(c2ncnc3c2sc2cccc(F)c23)CC1,3.98%
2,NS(=O)(=O)c1ccc(CCNC(=O)C(=O)NCC2OCCN2S(=O)(=O)c2cc(F)ccc2F)cc1 (stereo not drawn),11.7%
3,Cc1ccc(NC(=O)N2CCC(NC(=O)c3ccccc3C)CC2)cc1,-4.77%
4,CC(C)n1c(SCC(=O)N2CCN(C)CC2)nc2c1c(=O)n(C)c(=O)n2C,2.15%
5,O=C1/C(=C/c2cccc([N+](=O)[O-])c2)N2CCC1CC2,-23.9%
6,CCC(C)n1c(SCC(=O)NC(=O)c2cccn2C)nc2ccccc2c1=O (stereo not drawn),-17.7%
7,Cc1nn(C)c(C)c1CCC(=O)O,17%
8,C=CCN(C(=O)c1csnn1)C(C(=O)NC(C)(C)C)c1ccncc1 (stereo not drawn),20.3%
9,O=C(Cn1nc(C(=O)O)c2ccccc2c1=O)c1c[nH]c2ccccc12,-34.5%
10,Cn1c(SCC(=O)c2ccc(O)cc2O)nnc1-c1ccccc1,16.6%
11,CCOc1ccc(C2CC(=O)NC3=C2C(=O)CCC3)cc1 (stereo not drawn),8.7%
12,COc1ccc(/C=C(/C#N)C(=O)Nc2cccc(C)c2C)cc1C(=O)O,11.6%
13,COC(=O)c1cccc(N(C(=O)CNC(=O)c2ccco2)C(C(=O)NC2CCCC2)c2ccco2)c1 (stereo not drawn),6.89%
14,COc1ccc(-c2ccc(=O)n(Cc3cc(=O)n4ccccc4n3)n2)cc1,-24.5%
15,COc1ccc(OCC(=O)NCCCN2CCOCC2)cc1,10.7%
16,COc1ccc(S(=O)(=O)N2CCCCCC2)cc1NC(=O)CCCOc1ccccc1,-14.8%
17,Cc1csc(NC(=O)c2cccc(C)c2C)n1,-1.24%
18,Cc1cnn(Cc2ccccc2)c1N,23.3%
19,CSc1nnc(-c2ccncc2)n1CCCN1CCCC1=O,7.34%
20,CC(C)N1CCN(Cc2cccc([N+](=O)[O-])c2)CC1,-2.13%
21,C/C(CC(=O)Nc1ccc(Cl)cc1Cl)=N\NC(=O)c1cnccn1,-0.121%
22,NC(=O)[C@@H]1CCCNc2c(F)cc([N+](=O)[O-])cc2C(=O)N[C@@H](CCC(=O)O)C(=O)N[C@@H](CO)C(=O)N1,4.79%

row,Compound,"hERG current change (%, negative = inhibition) at 10uM"
1,O=C([O-])c1cc(-c2cccnc2)nc2ccc(Br)cc12.[K+],16.2%
2,CCCCC(NC(=O)c1ccccc1)C(=O)OCC(=O)N1c2ccccc2Sc2ccccc21 (stereo not drawn),13.5%
3,CN(C)C(=O)c1ccc(-c2n[nH]c(=O)c3ccccc23)cc1,-22%
4,CC(NC(=O)Cn1cc(C(=O)C2CC2)c2ccccc21)c1ccccc1 (stereo not drawn),4.74%
5,Cc1nn(CC(=O)Nc2ccc(C(=O)N3CCCC3)cc2)c(=O)c2ccccc12,-1.72%
6,O=C(CN1C(=O)NC2(CCCc3ccccc32)C1=O)NCc1ccc(Cl)cc1Cl (stereo not drawn),-17.4%
7,Cn1c(O)c(C=Nc2ccc(Br)cc2)c(=O)n(C)c1=O,5.63%
8,O=C(CCNS(=O)(=O)c1ccccc1)NNC(=O)C1COc2ccccc2O1 (stereo not drawn),-6.71%
9,O=C1CC(=O)N(c2ccccc2)C(=O)N1c1ccccc1,2.76%
10,CC(Sc1ccccn1)C(=O)NC1CCCC1 (stereo not drawn),0.433%
11,O=C(O)CCC(=O)Nc1ccc(Br)cc1C(=O)c1ccc(Cl)cc1,5.74%
12,COCc1ccc(C(=O)N(C)C2CCCN(Cc3ccccc3F)C2)o1 (stereo not drawn),0.722%
13,COc1ccc2ccccc2c1CN1CCN(Cc2ccccc2)CC1,-2.66%
14,Cc1ccc(NC(=O)C2CCN(S(C)(=O)=O)CC2)cc1Cl,7.54%
15,CCOc1ccc(CNC(=O)C2CCCN(c3nnc(C)c4c(C)n(-c5ccccc5)nc34)C2)cc1 (stereo not drawn),-29.6%
16,CC(C)CN1CCC(=O)N([C@H](COc2ccccc2)c2ccccc2)CC1,-75.3%
17,C=CCn1c(=O)c2ccccc2n2c(SCC(=O)NCc3cccs3)nnc12,-32.7%
18,O=C(CN1C(=O)S/C(=C\C=C\c2ccccc2)C1=O)Nc1ccc(C(=O)O)cc1,9.95%
19,CC(=O)N1CCN(C(=O)c2ccc(NS(=O)(=O)c3ccc4c(c3)OCCO4)cc2)CC1,10.4%
20,CCCCOc1c(Cl)cc(CNC(C)(C)CO)cc1OCC,-4%
21,CCC(C)(C)n1nnnc1C(c1cccc(C#N)c1)N1CCN(c2cc(C)ccc2C)CC1 (stereo not drawn),-3.57%
22,COc1cc(=O)oc(-c2ccccc2)c1C(C)=O,7.16%

row,Compound,"hERG current change (%, negative = inhibition) at 10uM"
1,COc1cnc(-c2ccccc2)nc1OC,12.4%
2,CC1=Nn2c(nc(-c3ccccc3)c2-c2ccccc2)NC(=O)C1Br (stereo not drawn),2.55%
3,Cc1ccc(NC(=S)N2CCCCC2)cc1C,16.4%
4,CC(C)CNC1CS(=O)(=O)CC1O.Cl (stereo not drawn),-2.46%
5,N/C(Cc1ccc(Cl)cc1Cl)=N\OC(=O)Cc1ccccc1,7.08%
6,O=S(=O)(c1ccccc1F)N1CCC(c2nc3ccccc3[nH]2)CC1,-13.3%
7,O=C(COc1ccc(S(=O)(=O)N2CCCC2)cc1)NCc1ccco1,5.11%
8,Cn1c(N)c(C(=O)COC(=O)CNS(=O)(=O)c2ccc(Cl)c(Cl)c2)c(=O)n(C)c1=O,-46%
9,Cc1ccc(-n2nc3c(c2NC(=O)c2ccc4c(c2)OCO4)CS(=O)(=O)C3)c(C)c1,10.8%
10,CC(OC(=O)c1ccc(S(=O)(=O)NCc2ccco2)cc1)C(=O)Nc1ccc(Cl)cn1 (stereo not drawn),-39.8%
11,Cc1c(NS(=O)(=O)c2ccc3c(c2)CCN3C(=O)C2CC2)c(=O)n(-c2ccccc2)n1C,-15.5%
12,O=C(C[n+]1ccccc1)N/N=C/c1cccs1.[Cl-],12%
13,Nc1c(C(=O)N/N=C/c2ccccc2Cl)oc2nc(-c3ccccc3)cc(-c3ccco3)c12,22.1%
14,COc1ccccc1CCNC(=O)C1CCN(c2nnc(C)c3c(C)n(-c4ccc(C)cc4)nc23)CC1,-23.4%
15,NC(=O)c1c(NC(=O)c2ccc(N3C(=O)CCC3=O)cc2)sc2c1CCCC2,-7.65%
16,O=C(CSc1nnc(-c2ccccc2)o1)Oc1ccc(Br)cc1,-6.63%
17,CC(=O)c1ccc(Sc2ccccc2)c([N+](=O)[O-])c1,-3.46%
18,COc1cccc(CNS(=O)(=O)/C=C/c2ccc3c(c2)OCO3)c1,-17.8%
19,COCCn1c(SCC(=O)NC2CCCC2)nc2c(c1=O)SCC2,6.14%
20,CCc1cccc(C)c1N1C(=O)CN(Cc2ccccc2)C1=S,-17.8%
21,COc1ccc(CCNC(=O)c2ccc(CS(=O)(=O)c3ccc(Br)cc3)o2)cc1OC,-13.2%
22,CCCCN(C(=O)C1=NN(c2ccccc2)C(=O)CC1)c1c(N)n(CC(C)C)c(=O)[nH]c1=O,-3.93%

row,Compound,"hERG current change (%, negative = inhibition) at 10uM"
1,CSc1ccccc1NC(=O)CN(C)CC(=O)Nc1ccccc1N1CCOCC1,-8.94%
2,O=C(CN1C(=O)NC2(CCCC2)C1=O)Nc1ccc(Cl)cc1F,17.1%
3,O=C(NC(=S)Nc1ccc(Cc2ccncc2)cc1)c1ccccc1,-3.13%
4,CC1(C)CC(=O)C2=C(C1)Nc1ccccc1[S@]2=O,6.89%
5,CCOC(=O)Cc1csc(NC(=O)COc2ccccc2OC)n1,-14.2%
6,Cc1ccc(Nc2c(-c3ccccn3)nc3cc(C)ccn23)cc1,-48.1%
7,Cc1cc(NCCCn2ccnc2)n2ncc(-c3ccccc3)c2n1,-67.6%
8,Nc1c(-c2ccccc2)sc2ccc3ccccc3[n+]12.O=S(=O)([O-])c1ccccc1,-58.3%
9,Cc1nc2cc(N=NC3=C(O)CCCC3=O)ccc2s1,20.9%
10,O=C(Nc1nnc(C2CC2)s1)c1ccncc1,3.02%
11,COc1ccc(CC(C)Nc2cccc(SC)c2)cc1 (stereo not drawn),13.5%
12,O=C(C1CCC(=O)N1Cc1cccs1)N1CCOCC1 (stereo not drawn),13.1%
13,CCOC(=O)C1CCCN(C(=O)c2cn(CC(C)C)c(=O)c3cc(OC)c(OC)cc23)C1 (stereo not drawn),5.47%
14,Cc1cccc(Cn2c(=O)c3c(nc4n3CCCN4Cc3ccccc3)n(C)c2=O)c1,-38.8%
15,N#C/C(=C\c1cccnc1)C(=O)Nc1ccc(O)cc1F,1.67%
16,CCc1ccc(NC(=O)C2CC=CCC2C(=O)O)cc1 (stereo not drawn),3.28%
17,CCn1c(Cn2nnc(-c3ccccc3)n2)nnc1SCC(=O)Nc1ccccc1,-7.39%
18,COC(=O)C1=C(C)N(CCCC(=O)O)C(=O)NC1c1ccc(C#N)cc1 (stereo not drawn),-23.6%
19,c1ccc(-n2nnnc2SCc2cccc(CSc3nnnn3-c3ccccc3)n2)cc1,-1.88%
20,COc1cc(=O)n(C)c2c(OCC(O)C(C)(C)O)cccc12 (stereo not drawn),16.6%
21,Cc1cc(C)c(S(=O)(=O)N2CCCOC2CNC(=O)C(=O)NCCCn2ccnc2)c(C)c1 (stereo not drawn),-9.48%
